# In PubChem BioAssay (NCATS):
# The other results are listed elsewhere or left out. The main result of the screen is listed elsewhere. These columns were measured beside it and carry no call. The list favours compounds with an active or inconclusive main result. The note in brackets gives the kind of curve behind each potency; many fits are weak.
# Assay: qHTS Assay for Lipid Storage Modulators (AID 1519)
# Conditions: Drosophila S3 cells, BODIPY lipid droplet/cell ratio, laser cytometry; measured here: cell count channel max response; cells loaded with oleic acid
# Summary of the method: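 Cells seeded at 5,000 per well were treated with compounds over a concentration series and loaded with oleic acid (400 uM, as added). Lipid droplet fluorescence (488 nm excitation, 500-530 nm channel) was read by laser-scanning cytometry and normalized to 20 uM Triacsin C.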
# Tags give direction and shape of the fitted curve.
row,Structure (SMILES),max response
1,COCCn1c(=O)c(-c2cccs2)nc2cnc(Nc3ccccc3)nc21,53.9%
2,CC1(C)S[C@H]2[C@@H](NC(=O)C(N)c3ccccc3)C(=O)N2[C@H]1C(=O)O (stereo not given in full),-9.63%
3,C=C1C([C@@]2(C)C(OC(C)=O)CC(=O)O[C@@](C)(COC(C)=O)C2CC(=O)OC)C(OC=O)C(OC(=O)C(O)C(C)CC)[C@]2(C)C(c3ccoc3)CC(=O)C12O (stereo not given in full),-9.65%
4,Oc1ccc2c(c1)OCC1c3cc4c(cc3OC21)OCO4 (stereo not given),16.7%
5,COCCn1c(=O)c(-c2cccs2)nc2cnc(OC)nc21,-2.87%
6,COc1ccccc1-c1cc(NCc2cnc(C)cn2)ncn1,21.3%
7,CN(Cc1ccco1)c1cc(-c2cccnc2)ncn1,14.9%
8,CNC(=O)[C@H]1O[C@H](n2cnc3c(NCc4cccc(I)c4)nc(Cl)nc32)[C@@H](O)[C@@H]1O,57.9%
9,O=S(=O)(c1ccccc1)N1CCC2(CCCN(c3ccncc3)C2)CC1,-25.7%
10,c1cncc(-c2ccc3ncnc(N4CCNCC4)c3c2)c1,14.6%
11,CC1CC2C(C(O)C[C@]3(C)C2CC[C@]3(O)C(=O)CO)[C@]2(C)C=CC(=O)C=C12 (stereo not given in full),22.6%
12,CCNc1ncc2nc(-c3ccc(F)cc3)c(=O)n(C)c2n1,20.3%
13,Cc1ccccc1-c1cc(N2CCNCC2)ncn1,29.4%
14,COCCn1c(=O)c(-c2cn(C)c3ccccc23)nc2cnc(N3CCNCC3)nc21,23.6%
15,Nc1nc(/C(=C/CC(=O)O)C(=O)NC2C(=O)N3C(C(=O)O)=CCSC23)cs1 (stereo not given),22.9%
16,Cc1nc2cnc(Oc3ccccc3)nc2n(C2CC2)c1=O,16.1%
17,COc1ccc(NC(=O)N2CCCC3(CCN(C(=O)c4ccco4)CC3)C2)cc1,21.8%
18,COc1ccccc1CNc1cc(-c2cccc(NS(C)(=O)=O)c2)ncn1,-0.471%
19,O=C(Nc1cccc(F)c1)N1CCC2(CC1)CCN(C(=O)c1ccncc1)CC2,18.3%
20,COc1ccc2[nH]cc(CCNc3ccnc(-c4ccc5c(c4)OCO5)n3)c2c1,20.4%

row,Structure (SMILES),max response
1,CN(C)c1ncc2ncc(=O)n(Cc3cccs3)c2n1,21.9%
2,N[C@@H](Cc1cc(-c2ccc(Cl)cc2Cl)cc(CP(=O)(O)O)c1O)C(=O)O,32.2%
3,CN1CCN(c2ccnc(-c3cccc(NS(C)(=O)=O)c3)n2)CC1,24%
4,COc1ccc(C2COc3c(ccc(O)c3OC)C2)c(OC)c1O (stereo not given),26.2%
5,CCN1CCN(c2cc3c(cc2F)c(=O)c(C(=O)O)cn3C2CC2)CC1,17%
6,C[C@@](Cc1ccc(O)c(O)c1)(NN)C(=O)O,28.6%
7,CCNc1ncc2nc(C)c(=O)n(CCc3ccccc3)c2n1,17.9%
8,Cc1cnc(CNc2ncnc3ccc(-c4ccccc4Cl)cc23)cn1,23.5%
9,COc1ccccc1CNc1ncncc1-c1ccccc1Cl,24.1%
10,CN1CCN(c2ncc3nc(-c4cccs4)c(=O)n(CCc4ccccc4)c3n2)CC1,22.2%
11,O=C(c1ccco1)N1CCC2(CCCN(Cc3ccncc3)C2)CC1,18.9%
12,N#Cc1cccc(NC(=O)N2CCCC3(CCN(C(=O)c4ccncc4)CC3)C2)c1,25.7%
13,COc1cc(C(C)=O)cc(OC)c1O,25.3%
14,CCNc1ncc2nc(-c3ccc(OC)cc3)c(=O)n(C)c2n1,20.3%
15,COc1cccc(Nc2ncc3nc(-c4cccs4)c(=O)n(Cc4cccs4)c3n2)c1,20%
16,O=c1c(CCc2ccccc2)nc2cnc(Nc3ccccc3)nc2n1C[C@H]1CCCO1,27.2%
17,COCCNc1nc(-c2ccc(N(C)C)cc2)nc2ccccc12,-8.58%
18,COc1cc2c(cc1OC)-c1c(oc3cc(O)cc(O)c3c1=O)CO2,-28%
19,N#Cc1ccc(CN2CC3(CCN(C(=O)c4cc(C(F)(F)F)cc(C(F)(F)F)c4)CC3)C2)cc1,-27%
20,O=C(c1ccncc1)N1CCC2(CC1)CCN(c1ncccn1)CC2,18.3%

# Same assay, conditions: Drosophila S3 cells, BODIPY lipid droplet/cell ratio, laser cytometry; measured here: cell number channel AC50; cells loaded with oleic acid
row,Structure (SMILES),AC50
1,COCCn1c(=O)c(-c2cccs2)nc2cnc(Nc3ccccc3)nc21,"3.55 µM [rising, partial curve]"
2,COCCn1c(=O)c(-c2cccs2)nc2cnc(OC)nc21,"3.16 µM [rising, single point]"
3,CN(Cc1ccco1)c1cc(-c2cccnc2)ncn1,"3.98 µM [rising, single point]"
4,CNC(=O)[C@H]1O[C@H](n2cnc3c(NCc4cccc(I)c4)nc(Cl)nc32)[C@@H](O)[C@@H]1O,"2.51 µM [rising, full curve, poor fit]"
5,N[C@@H](Cc1cc(-c2ccc(Cl)cc2Cl)cc(CP(=O)(O)O)c1O)C(=O)O,"22.4 µM [rising, full curve, poor fit]"
6,CN1CCN(c2ncc3nc(-c4cccs4)c(=O)n(CCc4ccccc4)c3n2)CC1,"1.26 µM [rising, full curve, poor fit]"

# Same assay, conditions: Drosophila S3 cells, BODIPY lipid droplet/cell ratio, laser cytometry; measured here: lipid (BODIPY) channel AC50; cells loaded with oleic acid
row,Structure (SMILES),AC50
1,CC1(C)S[C@H]2[C@@H](NC(=O)C(N)c3ccccc3)C(=O)N2[C@H]1C(=O)O (stereo not given in full),"63.1 µM [falling, single point]"
2,C=C1C([C@@]2(C)C(OC(C)=O)CC(=O)O[C@@](C)(COC(C)=O)C2CC(=O)OC)C(OC=O)C(OC(=O)C(O)C(C)CC)[C@]2(C)C(c3ccoc3)CC(=O)C12O (stereo not given in full),"3.98 µM [falling, partial curve]"
3,Oc1ccc2c(c1)OCC1c3cc4c(cc3OC21)OCO4 (stereo not given),"14.1 µM [rising, partial curve, poor fit]"
4,COc1ccccc1-c1cc(NCc2cnc(C)cn2)ncn1,"0.708 µM [rising, full curve]"
5,O=S(=O)(c1ccccc1)N1CCC2(CCCN(c3ccncc3)C2)CC1,"39.8 µM [falling, single point]"
6,c1cncc(-c2ccc3ncnc(N4CCNCC4)c3c2)c1,"0.0447 µM [rising, full curve, poor fit]"
7,CC1CC2C(C(O)C[C@]3(C)C2CC[C@]3(O)C(=O)CO)[C@]2(C)C=CC(=O)C=C12 (stereo not given in full),"39.8 µM [rising, single point]"
8,CCNc1ncc2nc(-c3ccc(F)cc3)c(=O)n(C)c2n1,"0.794 µM [rising, full curve, poor fit]"
9,Cc1ccccc1-c1cc(N2CCNCC2)ncn1,"20 µM [rising, single point]"
10,COCCn1c(=O)c(-c2cn(C)c3ccccc23)nc2cnc(N3CCNCC3)nc21,"2.82 µM [rising, full curve, poor fit]"
11,Nc1nc(/C(=C/CC(=O)O)C(=O)NC2C(=O)N3C(C(=O)O)=CCSC23)cs1 (stereo not given),"39.8 µM [rising, single point]"
12,Cc1nc2cnc(Oc3ccccc3)nc2n(C2CC2)c1=O,"0.355 µM [rising, full curve, poor fit]"
13,COc1ccc(NC(=O)N2CCCC3(CCN(C(=O)c4ccco4)CC3)C2)cc1,"1.78 µM [rising, full curve, poor fit]"
14,COc1ccccc1CNc1cc(-c2cccc(NS(C)(=O)=O)c2)ncn1,"2.82 µM [rising, partial curve, poor fit]"
15,O=C(Nc1cccc(F)c1)N1CCC2(CC1)CCN(C(=O)c1ccncc1)CC2,"0.00562 µM [rising, full curve, poor fit]"
16,COc1ccc2[nH]cc(CCNc3ccnc(-c4ccc5c(c4)OCO5)n3)c2c1,"0.0251 µM [rising, full curve, poor fit]"
17,CN(C)c1ncc2ncc(=O)n(Cc3cccs3)c2n1,"0.0112 µM [rising, full curve, poor fit]"

row,Structure (SMILES),AC50
1,CN1CCN(c2ccnc(-c3cccc(NS(C)(=O)=O)c3)n2)CC1,"22.4 µM [rising, partial curve, poor fit]"
2,COc1ccc(C2COc3c(ccc(O)c3OC)C2)c(OC)c1O (stereo not given),"39.8 µM [rising, single point]"
3,CCN1CCN(c2cc3c(cc2F)c(=O)c(C(=O)O)cn3C2CC2)CC1,"3.16 µM [rising, partial curve]"
4,C[C@@](Cc1ccc(O)c(O)c1)(NN)C(=O)O,"22.4 µM [rising, partial curve, poor fit]"
5,CCNc1ncc2nc(C)c(=O)n(CCc3ccccc3)c2n1,"0.631 µM [rising, full curve]"
6,Cc1cnc(CNc2ncnc3ccc(-c4ccccc4Cl)cc23)cn1,"1.78 µM [rising, full curve, poor fit]"
7,COc1ccccc1CNc1ncncc1-c1ccccc1Cl,"0.631 µM [rising, full curve, poor fit]"
8,O=C(c1ccco1)N1CCC2(CCCN(Cc3ccncc3)C2)CC1,"3.98 µM [rising, partial curve, poor fit]"
9,N#Cc1cccc(NC(=O)N2CCCC3(CCN(C(=O)c4ccncc4)CC3)C2)c1,"1 µM [rising, full curve, poor fit]"
10,COc1cc(C(C)=O)cc(OC)c1O,"39.8 µM [rising, single point]"
11,CCNc1ncc2nc(-c3ccc(OC)cc3)c(=O)n(C)c2n1,"0.0794 µM [rising, full curve, poor fit]"
12,COc1cccc(Nc2ncc3nc(-c4cccs4)c(=O)n(Cc4cccs4)c3n2)c1,"17.8 µM [falling, single point]"
13,O=c1c(CCc2ccccc2)nc2cnc(Nc3ccccc3)nc2n1C[C@H]1CCCO1,"0.355 µM [rising, partial curve, poor fit]"
14,COCCNc1nc(-c2ccc(N(C)C)cc2)nc2ccccc12,"0.0316 µM [rising, full curve, poor fit]"
15,COc1cc2c(cc1OC)-c1c(oc3cc(O)cc(O)c3c1=O)CO2,"35.5 µM [falling, single point]"
16,N#Cc1ccc(CN2CC3(CCN(C(=O)c4cc(C(F)(F)F)cc(C(F)(F)F)c4)CC3)C2)cc1,"31.6 µM [falling, single point]"
17,O=C(c1ccncc1)N1CCC2(CC1)CCN(c1ncccn1)CC2,"4.47 µM [rising, partial curve]"
